In PubChem BioAssay AID1948 (National Center for Advancing Translational Sciences (NCATS), 2009):
Among all 110,000 compounds or so, about 20 (0.02%) were called active. This list was built around the results that the source calls inconclusive (neither active nor inactive); the mix of calls is not that of the screen. Calls follow the shape of the dose curve; as a rule, active = well fitted activation curve with a large enough effect; inconclusive = small, poorly fitted or top-dose-only effect; inactive = no such curve, though single readings can be large or run the other way. No potency is given beside an inconclusive call; the fits are too rough.

Assay: qHTS Assay for Compounds that Induce Erasure of Genomic Imprints;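 as to activity change, positive = activation: 0% = negative control wells on the plate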
Conditions: mouse ES Peg3-LacZ reporter, beta-gal luminescence, 40 h; activity change, positive = activation: at 60.7 µM (top of the series) unless noted
In short: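 Imprint erasure is scored as LacZ activity from the silenced maternal Peg3 allele in feeder-free female ES cells cultured 40 h with LIF. Luminescence is normalized to in-plate negative controls and fitted to the Hill equation.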
Potency is read from the fitted curve at half-maximal effect; tags tell the direction and shape of the fitted curve.

SMILES	Potency	activity change, positive = activation
CCOP(=S)(OCC)SCn1c(=O)oc2cc(Cl)ccc21	inconclusive [activator, single point]	–
O=C(O)C1=CCCN(CCOC(c2ccc(C(F)(F)F)cc2)c2ccc(C(F)(F)F)cc2)C1	inactive	–
CN1CCN(c2ncc3ncc(=O)n(C)c3n2)CC1	inconclusive [activator, single point]	–
CC(C)[C@@H](Br)C(=O)NCC(=O)O	–	inactive: -11.5% [at 10.9 µM]
CCOC(=O)C1C(C=C(C)C)C1(C)C (stereo not given)	inconclusive [activator, partial curve]	–
[N-]=[N+]=NCC(=O)c1c[nH]c(=O)[nH]c1=O	inconclusive [activator, single point]	–
CC(N)C(=O)c1ccco1 (stereo not given)	inconclusive [activator, single point]	–
NCC(CC(=O)O)c1ccc(Cl)cc1 (stereo not given)	inconclusive [activator, single point]	–
NC[C@H](CC(=O)O)c1ccc(Cl)cc1	inconclusive [activator, single point]	–
C[C@@]12CC[C@H]3[C@@H](CC[C@H]4C[C@@H](O)CC[C@]43C)[C@H]1CC[C@@H]2C(=O)C[C@H](O)C(F)(F)F	inconclusive [activator, single point]	–
N[C@H](Cc1c[nH]c2ccccc12)P(=O)(O)O	active: 0.631 µM	–
CNc1ccc2oc(C[C@@H]3OC4(CC[C@@H]3C)O[C@H](C(C)C(=O)c3ccc[nH]3)[C@H](C)C[C@H]4C)nc2c1C(=O)O (stereo not given in full)	inactive	–
CCC1(C2=NCCN2)Cc2ccccc2O1 (stereo not given)	inconclusive [activator, single point]	–
CC[C@H]1CN2CC[C@@H]1C[C@H]2[C@@H](O)c1ccnc2ccc(OC)cc12	inconclusive [activator, single point]	–
NCC1(CC(=O)O)CCCCC1	inconclusive [activator, single point]	–
CN(C)C=C1C(=O)N(C2CCCCC2)C(=O)N(C2CCCCC2)C1=O	inactive	–
O=C(O)C[O][Sb][O]CC(=O)O	inconclusive [activator, single point]	–
CCCCN1CCC(C#N)(Nc2ccccc2)CC1	inconclusive [activator, single point]	–
Cc1ccc(N)c([N+](=O)[O-])c1	inconclusive [activator, single point]	–
O=S1OCC2C(CO1)C1(Cl)C(Cl)=C(Cl)C2(Cl)C1(Cl)Cl (stereo not given)	inactive	–
